# “And” between values parts separate entries of the source, which are not always exact repeats. Equal entries are not always repeated. Inconclusive means that the source gave no clear call. Such entries were picked first, then a sample of the others. For some of these results: Potencies beside an inconclusive call are fits to weak or partial responses and may not hold up. The source made the active and inactive calls. Unless noted, calls follow the shape of the dose curve; as a rule, active = well fitted curve in the direction sought with a large enough effect in the repeat runs; inconclusive = weak or mixed curves; inactive = no such curve, though single readings can be large; an effect the other way counts as inactive or inconclusive.
# How the values were obtained:
# [1] = target: Aryl hydrocarbon receptor (Homo sapiens) (UniProt P35869); experiment: qHTS assay to identify small molecule that activate the aryl hydrocarbon receptor (AhR) signaling pathway (AID 743085); also: nearly all actives have a fitted effect of over 15% in size;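 as to activation: HG2L7.5c1 human HepG2 liver cells with stably integrated DRE-driven firefly reporter; % is scaled to controls: 0 for no effect and ±100 for the full control effect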
# In short: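 Luminescence (ONE-Glo) from a dioxin-responsive-element luciferase reporter in HG2L7.5c1 HepG2 cells after 24 hr compound exposure at 37C; viability measured by CellTiter-Fluor fluorescence beforehand.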
# [2] = qHTS assay to identify small molecule that activate the aryl hydrocarbon receptor (AhR) signaling pathway - cell viability counter screen (AID 743086); also: nearly all actives have a fitted effect of over 45% in size;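 as to viability change, negative = cytotoxic: HepG2 liver cells carrying the AhR DRE luciferase reporter; % is scaled to controls: 0 for no effect and ±100 for the full control effect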
# In short: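 Cytotoxicity counter screen: CellTiter-Fluor signal (30 min, 37 C) in 4000 HepG2 cells/well carrying the DRE-luciferase reporter, following 24 h compound exposure at 37 C.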
# [3] = target: Peroxisome proliferator-activated receptor gamma (Homo sapiens) (UniProt P37231); experiment: qHTS assay to identify small molecule antagonists of the peroxisome proliferator-activated receptor gamma (PPARg) signaling pathway (AID 743191; calls by dose curve; also: nearly all actives have a fitted effect of over 30% in size; as to ratio activity, negative = inhibition: % is scaled to controls: 0 for no effect and ±100 for the full control effect); conditions: HEK293H PPARg-UAS-bla, beta-lactamase ratio, antagonist, 17 h
# In short: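 Beta-lactamase reporter under UAS control in HEK293H PPARg-bla cells; compound treatment 17 h at 37C. Read-out: fluorescence intensity after 1 h room-temperature incubation with LiveBLAzer B/G FRET substrate.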
# [4] = qHTS assay to identify small molecule antagonists of the peroxisome proliferator-activated receptor gamma (PPARg) signaling pathway - cell viability counter screen (AID 743194); conditions: PPARg-bla HEK293H viability, CellTiter-Glo luminescence, 17 h, co-treated with 50 nM rosiglitazone; activity change, negative = cytotoxicity: at 62.6 µM (top of the series) unless noted; also: nearly all actives have a fitted effect of over 55% in size; as to activity change, negative = cytotoxicity: % is scaled to controls: 0 for no effect and ±100 for the full control effect
# In short: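 Viability was measured as CellTiter-Glo luminescence in GeneBLAzer PPARg UAS-bla HEK293H cells. These cells had been exposed 17 h at 37 C to compounds together with rosiglitazone at 50 nM final, with the beta-lactamase readout taken in the same wells.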
# [5] = qHTS assay for small molecule agonists of the antioxidant response element (ARE) signaling pathway (AID 743202; active = well fitted activation curve with a large enough effect in the signal ratio in the repeat runs, not every such curve was filed as active; inconclusive = weak or mixed curves, or effect the other way; inactive = no such curve, though single readings can be large or run the other way; the % refers to the signal ratio); conditions: HepG2 ARE-bla reporter, beta-lactamase FRET, 16 h; activation: at 73.3 µM (top of the series) unless noted
# In short: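 An ARE-responsive beta-lactamase gene stably integrated in HepG2 cells serves as reporter. After 5 h plating and 16 h compound incubation at 37 C, fluorescence of the B/G FRET substrate was measured.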
# [6] = qHTS assay for small molecule activators of the heat shock response signaling pathway - cell viability counter screen (AID 743209); conditions: HSE-bla HeLa viability, CellTiter-Glo luminescence, 5 h; activity change, negative = cytotoxicity: at 62.6 µM (top of the series) unless noted; also: nearly all actives have a fitted effect of over 50% in size
# In short: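 Luminescence from CellTiter-Glo, added after the beta-lactamase FRET read, gave the viability signal. Cells were HSE-bla HeLa treated with DMSO-dissolved compounds for 5 h at 37 C following overnight plating.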
# [7] = qHTS assay for small molecule activators of the heat shock response signaling pathway (AID 743210; active = well fitted activation curve with a large enough effect in the signal ratio in the repeat runs, with a control signal flat, not every such curve was filed as active; inconclusive = weak or mixed curves; the % refers to the signal ratio); conditions: HeLa HSE-bla reporter, beta-lactamase ratio, 5 h; activation: at 62.6 µM (top of the series) unless noted
# In short: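 In HSE-bla HeLa cells, 5 h compound incubation (37 C) precedes addition of LiveBLAzer B/G substrate; after 2.5 h at room temperature, fluorescence intensity indicates reporter induction.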
# [8] = target: Peroxisome proliferator-activated receptor gamma (Homo sapiens) (UniProt P37231); experiment: qHTS assay to identify small molecule agonists of the peroxisome proliferator-activated receptor gamma (PPARg) signaling pathway (AID 743094; active = well fitted activation curve with a large enough effect in the signal ratio in the repeat runs, not every such curve was filed as active; inconclusive = weak or mixed curves, or effect the other way; inactive = no such curve, though single readings can be large or run the other way; the % refers to the signal ratio); conditions: HEK293H PPARg-UAS-bla, beta-lactamase FRET ratio, 17 h; activation: at 57 µM (top of the series) unless noted
# In short: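 Beta-lactamase FRET fluorescence was the read-out after a 1 h room-temperature substrate step, following 17 h compound treatment at 37C of HEK293H cells expressing a UAS-driven bla reporter responsive to PPARg.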
# [9] = qHTS assay for small molecule agonists of the antioxidant response element (ARE) signaling pathway - cell viability counter screen (AID 743203; calls by dose curve; also: nearly all actives have a fitted effect of over 55% in size); conditions: ARE-bla HepG2 viability, CellTiter-Glo luminescence, 16 h; viability change, negative = cytotoxic: at 73.3 µM (top of the series)
# In short: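 HepG2 cells carrying ARE-driven beta-lactamase; 2,000 cells/well; 5 hrs plating; compound pinned from DMSO; 16 hrs 37C/5% CO2; CellTiter-Glo added; 30 min RT; luminescence.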
# [10] = qHTS assay to identify small molecule agonists of the peroxisome proliferator-activated receptor delta (PPARd) signaling pathway - cell viability counter screen (AID 743211); conditions: PPARd-bla HEK293H viability, CellTiter-Glo luminescence, 17 h; activity change, negative = cytotoxicity: at 62.6 µM (top of the series); also: nearly all actives have a fitted effect of over 55% in size
# In short: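 Viability was measured as CellTiter-Glo luminescence (30 min, room temperature) in the same wells as the beta-lactamase readout. GeneBLAzer PPARd UAS-bla HEK293H cells received compound after 5 h plating and were incubated 17 h at 37 C.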
# [11] = ratio activity, negative = inhibition: at 62.6 µM (top of the series) unless noted
# Potency is read from the fitted curve at half-maximal effect; tags tell the direction and shape of the fitted curve or compound fluorescence and quenching.
# UniProt P35869, sequence (P35869 whole entry, looked up): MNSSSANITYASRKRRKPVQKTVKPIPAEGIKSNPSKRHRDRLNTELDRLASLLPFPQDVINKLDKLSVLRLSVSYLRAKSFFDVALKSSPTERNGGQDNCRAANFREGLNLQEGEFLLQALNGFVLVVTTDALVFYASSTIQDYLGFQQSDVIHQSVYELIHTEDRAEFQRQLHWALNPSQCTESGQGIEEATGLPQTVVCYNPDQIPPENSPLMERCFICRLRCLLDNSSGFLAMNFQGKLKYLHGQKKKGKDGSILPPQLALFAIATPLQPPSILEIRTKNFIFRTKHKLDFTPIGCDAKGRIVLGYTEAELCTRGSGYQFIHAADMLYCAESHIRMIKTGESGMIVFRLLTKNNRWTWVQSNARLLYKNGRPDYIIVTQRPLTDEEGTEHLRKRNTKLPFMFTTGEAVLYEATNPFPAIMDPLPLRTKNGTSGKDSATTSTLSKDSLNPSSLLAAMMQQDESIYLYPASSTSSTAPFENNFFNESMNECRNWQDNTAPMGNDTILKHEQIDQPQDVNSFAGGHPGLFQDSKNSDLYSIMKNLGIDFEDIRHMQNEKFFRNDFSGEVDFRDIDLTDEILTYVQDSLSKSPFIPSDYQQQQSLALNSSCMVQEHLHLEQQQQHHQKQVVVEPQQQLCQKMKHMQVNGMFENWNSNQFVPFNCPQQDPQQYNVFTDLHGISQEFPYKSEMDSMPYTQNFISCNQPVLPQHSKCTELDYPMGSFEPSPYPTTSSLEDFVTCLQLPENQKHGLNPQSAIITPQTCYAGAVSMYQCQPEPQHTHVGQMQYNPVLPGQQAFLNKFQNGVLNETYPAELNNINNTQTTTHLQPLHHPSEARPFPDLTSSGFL
# UniProt P37231, sequence (P37231 whole entry, looked up): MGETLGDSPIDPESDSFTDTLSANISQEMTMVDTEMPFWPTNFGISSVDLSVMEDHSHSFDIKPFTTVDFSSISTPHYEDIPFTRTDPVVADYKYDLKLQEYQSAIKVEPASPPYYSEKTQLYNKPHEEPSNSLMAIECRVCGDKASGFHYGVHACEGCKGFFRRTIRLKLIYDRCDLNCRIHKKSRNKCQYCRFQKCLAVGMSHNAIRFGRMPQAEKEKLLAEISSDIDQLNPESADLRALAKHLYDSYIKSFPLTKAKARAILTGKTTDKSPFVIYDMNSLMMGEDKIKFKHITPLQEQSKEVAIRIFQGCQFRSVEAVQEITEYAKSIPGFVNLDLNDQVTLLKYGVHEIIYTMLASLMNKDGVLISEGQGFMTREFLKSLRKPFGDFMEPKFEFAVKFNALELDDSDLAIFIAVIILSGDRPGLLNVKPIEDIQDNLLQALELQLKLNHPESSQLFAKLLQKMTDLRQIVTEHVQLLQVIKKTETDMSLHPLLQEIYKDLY
smiles,measurement,setting,value
Cc1cc(S(=O)(=O)O)ccc1N=Nc1c(O)ccc2ccccc12,Potency,[1],"inconclusive: 27.3 µM [activator, partial curve]"
O=C(OCC(O)CO)c1ccccc1Nc1ccnc2cc(Cl)ccc12 (stereo not given),Potency,[1],"inconclusive: 12.7 µM [activator, partial curve, poor fit]"
same,Potency,[2],inactive
same,Potency,[3]; [11],"inconclusive: 33.5 µM [inhibitor, partial curve, poor fit]"
same,Potency,[4],inactive
same,Potency,[5],active: 11.9 µM
same,Potency,[6],"inconclusive: 33.5 µM [cytotoxic, single point]"
same,Potency,[7],inconclusive: 29.8 µM
C=CCCCCCCCCCC,Potency,[1],inactive
CCN(CC)CCCC(C)Nc1c2ccc(Cl)cc2nc2ccc(OC)cc12 (stereo not given),Potency,[1],active: 9.44 µM
same,Potency,[8],"inconclusive: 10.7 µM [fluorescent, partial curve]"
same,Potency,[3]; [11],"inconclusive: 3.76 µM [fluorescent, full curve]"
same,Potency,[4],"inconclusive: 2.37 µM [cytotoxic, full curve]"
same,Potency,[5],"inconclusive: 2.37 µM [rising, partial curve]"
same,Potency,[9],active: 7.5 µM
same,Potency,[10],active: 11.9 µM
CCOC(=O)Nc1ccc(NCc2ccc(F)cc2)nc1N,Potency,[1],"inconclusive: 29.8 µM [activator, partial curve] and inconclusive: 11.9 µM [activator, partial curve]"
COc1ccc(-c2cc(=S)ss2)cc1,Potency,[1],active: 29.8 µM
same,Potency,[2],"inconclusive: 21.1 µM [falling, partial curve]"
same,Potency,[5],active: 13.3 µM
O=C1N=C(O)CN1/N=C/c1ccc(-c2ccc([N+](=O)[O-])cc2)o1,Potency,[1],"inconclusive: 422 nM [activator, full curve, poor fit] and inconclusive: 5.45 µM [activator, partial curve, poor fit]"
O=C(OCCOCCO)c1ccccc1Nc1cccc(C(F)(F)F)c1,Potency,[1],"inconclusive: 14.3 µM [activator, single point]"
same,Potency,[2],"inconclusive: 12.7 µM [rising, partial curve, poor fit]"
same,"ratio activity, negative = inhibition",[3]; [11],inconclusive: -17%
same,Potency,[5],"inconclusive: 33.5 µM [rising, partial curve, poor fit]"
NC(=O)N1C(=O)C(C(=O)c2cc(Cl)cs2)c2cc(F)c(Cl)cc21 (stereo not given),Potency,[1],active: 24.3 µM
same,Potency,[2],active: 12.2 µM
same,Potency,[3]; [11],"inconclusive: 1.95 µM [rising, full curve]"
same,Potency,[4],active: 13.8 µM
same,Potency,[5],"inconclusive: 77 µM [falling, single point]"
same,Potency,[7],inconclusive: 29.7 µM
COc1cc(-c2ccc(N=C=O)c(OC)c2)ccc1N=C=O,Potency,[1],"inconclusive: 29.7 µM [activator, single point]"
same,Potency,[2],inactive
same,"ratio activity, negative = inhibition",[3]; [11],inconclusive: -6.26%
same,Potency,[5],"inconclusive: 13.3 µM [falling, partial curve, poor fit]"
O=C(CS)Nc1ccccc1,Potency,[1],inconclusive: 33.5 µM [activator]
same,Potency,[2],"inconclusive: 33.5 µM [falling, partial curve, poor fit]"
same,Potency,[3]; [11],"inconclusive: 33.5 µM [inhibitor, single point]"
same,Potency,[4],"inconclusive: 1.88 µM [cytotoxic, partial curve, poor fit]"
same,Potency,[7],"inconclusive: 33.5 µM [activator, partial curve, poor fit]"
CC(C)=CCC1=C(O)c2ccccc2C(=O)C1=O,Potency,[1],active: 54.2 µM
same,Potency,[2],"inconclusive: 38.3 µM [falling, partial curve, poor fit]"
same,activation,[8],inconclusive: -18.1%
same,Potency,[3]; [11],active: 0.772 µM
same,Potency,[5],inconclusive: 68.2 µM
same,Potency,[9],inactive
Cc1c(O)cccc1O,Potency,[1],"inconclusive: 55.8 µM [activator, partial curve]"
Cc1ccc(C)c(C)c1,Potency,[1],"inconclusive: 73.6 µM [activator, partial curve, poor fit]"
same,Potency,[8],inactive
same,"ratio activity, negative = inhibition",[3]; at 62.6 µM (top of the series),inconclusive: 0.609%
same,"ratio activity, negative = inhibition",[3]; at 81.1 µM (top of the series),inconclusive: 11.3%
CCCCCCC(C)(C)S,Potency,[1],"inconclusive: 47.7 µM [activator, partial curve, poor fit]"
COc1cc2c(cc1OC)C(C(C(=O)N(CCc1ccc(OC)c(OC)c1OC)CCc1ccc(OC)c(OC)c1OC)c1ccccc1)=NCC2 (stereo not given),Potency,[1],"inconclusive: 26.6 µM [activator, partial curve]"
same,Potency,[2],active: 8.41 µM
same,Potency,[3]; [11],"inconclusive: 18.8 µM [rising, partial curve]"
